Assay [1] has as its target T1, human 4-1BB (CD137) (human, UniProt Q07011 24-255).
T1 construct: whole, on cells; also called hu4-1BB
Description: flow cytometry on anti-CD3/anti-CD28 pre-activated human PBMCs.

Assay [2] concerns the target T1, human 4-1BB (CD137). In words: flow cytometry on activated CD4+ T cells, FIG. 5A. A general note: A flow cytometer gives signals particle by particle.

B1: CD19 (2B11)-4-1BB ligand (71-248) contorsbody P1AA1258 (Fc fusion)
chain 1: REGPELSPDDPAGLLDLRQGMFAQLVAQNVLLIDGPLSWYSDPGLAGVSLTGGLSYKEDTKELVVAKAGVYYVFFQLELRRVVAGEGSGSVSLALHLQPLRSAAGAAALALTVDLPPASSEARNSAFGFQGRLLHLSAGQRLGVHLHTEARARHAWQLTQGATVLGLFRVTPEIPAGLGGGGSGGGGSDKTHTCPPCPAPEAAGGPSVFLFPPKPKDTLMISRTPEVTCVVVDVSHEDPEVKFNWYVDGVEVHNAKTKPREEQYNSTYRVVSVLTVLHQDWLNGKEYKCKVSNKALGAPIEKTISKAKGQPREPQVCTLPPSRDELTKNQVSLSCAVKGFYPSDIAVEWESNGQPENNYKTTPPVLDSDGSFFLVSKLTVDKSRWQQGNVFSCSVMHEALHNHYTQKSLSLSPGGGGGSGGGGSSGGGGSREGPELSPDDPAGLLDLRQGMFAQLVAQNVLLIDGPLSWYSDPGLAGVSLTGGLSYKEDTKELVVAKAGVYYVFFQLELRRVVAGEGSGSVSLALHLQPLRSAAGAAALALTVDLPPASSEARNSAFGFQGRLLHLSAGQRLGVHLHTEARARHAWQLTQGATVLGLFRVTPEIPAGL
chain 2: QVQLVQSGAEVKKPGASVKVSCKASGYTFTDYIMHWVRQAPGQGLEWMGYINPYNDGSKYTEKFQGRVTMTSDTSISTAYMELSRLRSDDTAVYYCARGTYYYGPQLFDYWGQGTTVTVSSASTKGPSVFPLAPSSKSTSGGTAALGCLVKDYFPEPVTVSWNSGALTSGVHTFPAVLQSSGLYSLSSVVTVPSSSLGTQTYICNVNHKPSNTKVDKKV[omitted - human IgG1 Fc with changes]GGGGSGGGGSREGPELSPDDPAGLLDLRQGMFAQLVAQNVLLIDGPLSWYSDPGLAGVSLTGGLSYKEDTKELVVAKAGVYYVFFQLELRRVVAGEGSGSVSLALHLQPLRSAAGAAALALTVDLPPASSEARNSAFGFQGRLLHLSAGQRLGVHLHTEARARHAWQLTQGATVLGLFRVTPEIPAGL
light: DIVMTQTPLSLSVTPGQPASISCKSSQSLETSTGTTYLNWYLQKPGQSPQLLIYRVSKRFSGVPDRFSGSGSGTDFTLKISRVEAEDVGVYYCLQLLEDPYTFGQGTKLEIKRTVAAPSVFIFPPSDEQLKSGTASVVCLLNNFYPREAKVQWKVDNALQSGNSQESVTEQDSKDSTYSLSSTLTLSKADYEKHKVYACEVTHQGLSSPVTKSFNRGEC
notes: Human IgG1 Fc knob-into-hole with P329G, L234A, L235A; also called CD19-4-1BBL contorsbody P1AA1258
In the case of B1, the binding result in the assay with human 4-1BB (CD137) [1] was “binds”.

B2: CD19 (2B11)-4-1BB ligand (71-248) contorsbody P1AA1233 (Fc fusion)
chain 1: REGPELSPDDPAGLLDLRQGMFAQLVAQNVLLIDGPLSWYSDPGLAGVSLTGGLSYKEDTKELVVAKAGVYYVFFQLELRRVVAGEGSGSVSLALHLQPLRSAAGAAALALTVDLPPASSEARNSAFGFQGRLLHLSAGQRLGVHLHTEARARHAWQLTQGATVLGLFRVTPEIPAGLGGGGSGGGGSDKTHTCPPCPAPEAAGGPSVFLFPPKPKDTLMISRTPEVTCVVVDVSHEDPEVKFNWYVDGVEVHNAKTKPREEQYNSTYRVVSVLTVLHQDWLNGKEYKCKVSNKALGAPIEKTISKAKGQPREPQVCTLPPSRDELTKNQVSLSCAVKGFYPSDIAVEWESNGQPENNYKTTPPVLDSDGSFFLVSKLTVDKSRWQQGNVFSCSVMHEALHNHYTQKSLSLSPGGGGGSGGGGSREGPELSPDDPAGLLDLRQGMFAQLVAQNVLLIDGPLSWYSDPGLAGVSLTGGLSYKEDTKELVVAKAGVYYVFFQLELRRVVAGEGSGSVSLALHLQPLRSAAGAAALALTVDLPPASSEARNSAFGFQGRLLHLSAGQRLGVHLHTEARARHAWQLTQGATVLGLFRVTPEIPAGL
chain 2: QVQLVQSGAEVKKPGASVKVSCKASGYTFTDYIMHWVRQAPGQGLEWMGYINPYNDGSKYTEKFQGRVTMTSDTSISTAYMELSRLRSDDTAVYYCARGTYYYGPQLFDYWGQGTTVTVSSASTKGPSVFPLAPSSKSTSGGTAALGCLVKDYFPEPVTVSWNSGALTSGVHTFPAVLQSSGLYSLSSVVTVPSSSLGTQTYICNVNHKPSNTKVDKKV[omitted - human IgG1 Fc with changes]GGGGSGGGGSREGPELSPDDPAGLLDLRQGMFAQLVAQNVLLIDGPLSWYSDPGLAGVSLTGGLSYKEDTKELVVAKAGVYYVFFQLELRRVVAGEGSGSVSLALHLQPLRSAAGAAALALTVDLPPASSEARNSAFGFQGRLLHLSAGQRLGVHLHTEARARHAWQLTQGATVLGLFRVTPEIPAGL
light: B1 light
notes: Human IgG1 Fc knob-into-hole with P329G, L234A, L235A; also called CD19-4-1BBL contorsbody P1AA1233
On to B2, for which the binding result with human 4-1BB (CD137) [2] is “binds”.

B3: CD19(2B11)-4-1BBL (Charged variant), Construct 4.4 of WO 2016/075278 (Fc fusion)
chain 1: REGPELSPDDPAGLLDLRQGMFAQLVAQNVLLIDGPLSWYSDPGLAGVSLTGGLSYKEDTKELVVAKAGVYYVFFQLELRRVVAGEGSGSVSLALHLQPLRSAAGAAALALTVDLPPASSEARNSAFGFQGRLLHLSAGQRLGVHLHTEARARHAWQLTQGATVLGLFRVTPEIPAGLGGGGSGGGGSREGPELSPDDPAGLLDLRQGMFAQLVAQNVLLIDGPLSWYSDPGLAGVSLTGGLSYKEDTKELVVAKAGVYYVFFQLELRRVVAGEGSGSVSLALHLQPLRSAAGAAALALTVDLPPASSEARNSAFGFQGRLLHLSAGQRLGVHLHTEARARHAWQLTQGATVLGLFRVTPEIPAGLGGGGSGGGGSRTVAAPSVFIFPPSDRKLKSGTASVVCLLNNFYPREAKVQWKVDNALQSGNSQESVTEQDSKDSTYSLSSTLTLSKADYEKHKVYACEVTHQGLSSPVTKSFNRGE[omitted - human IgG1 Fc with changes]
chain 2: REGPELSPDDPAGLLDLRQGMFAQLVAQNVLLIDGPLSWYSDPGLAGVSLTGGLSYKEDTKELVVAKAGVYYVFFQLELRRVVAGEGSGSVSLALHLQPLRSAAGAAALALTVDLPPASSEARNSAFGFQGRLLHLSAGQRLGVHLHTEARARHAWQLTQGATVLGLFRVTPEIPAGLGGGGSGGGGSASTKGPSVFPLAPSSKSTSGGTAALGCLVEDYFPEPVTVSWNSGALTSGVHTFPAVLQSSGLYSLSSVVTVPSSSLGTQTYICNVNHKPSNTKVDEKVEPKSC
heavy: QVQLVQSGAEVKKPGASVKVSCKASGYTFTDYIMHWVRQAPGQGLEWMGYINPYNDGSKYTEKFQGRVTMTSDTSISTAYMELSRLRSDDTAVYYCARGTYYYGPQLFDYWGQGTTVTVSSASTKGPSVFPLAPSSKSTSGGTAALGCLVKDYFPEPVTVSWNSGALTSGVHTFPAVLQSSGLYSLSSVVTVPSSSLGTQTYICNVNHKPSNTKVDKKVEPKSCDKTHTCPPCPAPEAAGGPSVFLFPPKPKDTLMISRTPEVTCVVVDVSHEDPEVKFNWYVDGVEVHNAKTKPREEQYNSTYRVVSVLTVLHQDWLNGKEYKCKVSNKALGAPIEKTISKAKGQPREPQVCTLPPSRDELTKNQVSLSCAVKGFYPSDIAVEWESNGQPENNYKTTPPVLDSDGSFFLVSKLTVDKSRWQQGNVFSCSVMHEALHNHYTQKSLSLSPGK
light: B1 light
notes: Positive control; monovalent CD19 (2B11) targeted 4-1BB ligand (71-248) trimer-containing Fc (kih) fusion with CH-CL crossover and charged residues; also called CD19-4-1BBL Ab
As to B3, the binding result in the assay with human 4-1BB (CD137) [1] is “binds”.

B4: CD19 (2B11)-4-1BB ligand (71-248) contorsbody P1AA0776 (Fc fusion)
chain: REGPELSPDDPAGLLDLRQGMFAQLVAQNVLLIDGPLSWYSDPGLAGVSLTGGLSYKEDTKELVVAKAGVYYVFFQLELRRVVAGEGSGSVSLALHLQPLRSAAGAAALALTVDLPPASSEARNSAFGFQGRLLHLSAGQRLGVHLHTEARARHAWQLTQGATVLGLFRVTPEIPAGLGGGGSGGGGSDKTHTCPPCPAPEAAGGPSVFLFPPKPKDTLMISRTPEVTCVVVDVSHEDPEVKFNWYVDGVEVHNAKTKPREEQYNSTYRVVSVLTVLHQDWLNGKEYKCKVSNKALGAPIEKTISKAKGQPREPQVCTLPPSRDELTKNQVSLSCAVKGFYPSDIAVEWESNGQPENNYKTTPPVLDSDGSFFLVSKLTVDKSRWQQGNVFSCSVMHEALHNHYTQKSLSLSPGGGGGSGGGGSREGPELSPDDPAGLLDLRQGMFAQLVAQNVLLIDGPLSWYSDPGLAGVSLTGGLSYKEDTKELVVAKAGVYYVFFQLELRRVVAGEGSGSVSLALHLQPLRSAAGAAALALTVDLPPASSEARNSAFGFQGRLLHLSAGQRLGVHLHTEARARHAWQLTQGATVLGLFRVTPEIPAGLGGGGSGGGGSREGPELSPDDPAGLLDLRQGMFAQLVAQNVLLIDGPLSWYSDPGLAGVSLTGGLSYKEDTKELVVAKAGVYYVFFQLELRRVVAGEGSGSVSLALHLQPLRSAAGAAALALTVDLPPASSEARNSAFGFQGRLLHLSAGQRLGVHLHTEARARHAWQLTQGATVLGLFRVTPEIPAGL
heavy: QVQLVQSGAEVKKPGASVKVSCKASGYTFTDYIMHWVRQAPGQGLEWMGYINPYNDGSKYTEKFQGRVTMTSDTSISTAYMELSRLRSDDTAVYYCARGTYYYGPQLFDYWGQGTTVTVSSASTKGPSVFPLAPSSKSTSGGTAALGCLVKDYFPEPVTVSWNSGALTSGVHTFPAVLQSSGLYSLSSVVTVPSSSLGTQTYICNVNHKPSNTKVDKKV[omitted - human IgG1 Fc with changes]
light: B1 light
notes: Human IgG1 Fc knob-into-hole with P329G, L234A, L235A; also called P1AA10776; CD19-4-1BBL contorsbody P1AA0776
With B4, in the assay with human 4-1BB (CD137) [1], the binding result is recorded as “binds”.
